In the experiment the target is T1, wild-type Rna14/Rna15 complex (2:2 heterotetramer) (Saccharomyces cerevisiae, UniProt P25298 1-677; P25299 1-296).
T1 sequence (looked up) 1: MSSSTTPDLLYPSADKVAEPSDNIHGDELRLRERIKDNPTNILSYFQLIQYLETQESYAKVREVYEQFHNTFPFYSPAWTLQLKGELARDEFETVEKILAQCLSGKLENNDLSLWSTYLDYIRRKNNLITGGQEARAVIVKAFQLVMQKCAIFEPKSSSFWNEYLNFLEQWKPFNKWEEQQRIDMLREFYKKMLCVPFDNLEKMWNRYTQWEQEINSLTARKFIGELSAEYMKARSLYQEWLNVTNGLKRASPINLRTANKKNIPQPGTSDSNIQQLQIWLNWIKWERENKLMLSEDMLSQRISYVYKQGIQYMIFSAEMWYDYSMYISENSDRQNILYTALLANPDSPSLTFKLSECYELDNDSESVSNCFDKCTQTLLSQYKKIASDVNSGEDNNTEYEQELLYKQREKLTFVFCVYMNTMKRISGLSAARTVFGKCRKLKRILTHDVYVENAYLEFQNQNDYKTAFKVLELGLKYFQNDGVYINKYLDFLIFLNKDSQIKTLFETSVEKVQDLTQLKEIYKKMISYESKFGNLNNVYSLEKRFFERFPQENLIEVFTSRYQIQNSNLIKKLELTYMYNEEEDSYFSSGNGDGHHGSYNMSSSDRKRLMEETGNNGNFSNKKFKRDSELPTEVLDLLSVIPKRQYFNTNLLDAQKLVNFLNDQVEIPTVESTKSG
T1 sequence (looked up) 2: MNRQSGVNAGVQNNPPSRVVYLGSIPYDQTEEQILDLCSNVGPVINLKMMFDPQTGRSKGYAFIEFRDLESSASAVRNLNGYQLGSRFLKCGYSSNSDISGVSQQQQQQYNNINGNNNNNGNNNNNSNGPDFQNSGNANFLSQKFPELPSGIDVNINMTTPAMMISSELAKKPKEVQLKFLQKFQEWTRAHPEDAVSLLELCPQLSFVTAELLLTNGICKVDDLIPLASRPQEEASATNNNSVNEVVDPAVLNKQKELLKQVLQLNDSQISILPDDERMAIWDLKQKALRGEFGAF
Kind of experiment: SEC.

B1: Pcf11/Clp1 complex (1:1 heterodimer) (complex)
chain 1: not shown
chain 2: MASLPGIDEHTTSEELITGDNEWHKLVIPKGSDWQIDLKAEGKLIVKVNSGIVEIFGTELAVDDEYTFQNWKFPIYAVEETELLWKCPDLTTNTITVKPNHTMKYIYNLHFMLEKIRMSNFEGPRVVIVGGSQTGKTSLSRTLCSYALKFNAYQPLYINLDPQQPIFTVPGCISATPISDILDAQLPTWGQSLTSGATLLHNKQPMVKNFGLERINENKDLYLECISQLGQVVGQRLHLDPQVRRSGCIVDTPSISQLDENLAELHHIIEKLNVNIMLVLCSETDPLWEKVKKTFGPELGNNNIFFIPKLDGVSAVDDVYKRSLQRTSIREYFYGSLDTALSPYAIGVDYEDLTIWKPSNVFDNEVGRVELFPVTITPSNLQHAIIAITFAERRADQATVIKSPILGFALITEVNEKRRKLRVLLPVPGRLPSKAMILTSYRYLE
For B1, the “stoichiometry N” value was 1 Pcf11/Clp1 heterodimer per Rna14/Rna15 heterotetramer.
